Test results reported in the supplement of paper PMC3334620.
The full ranking holds about 33,000 sequences; the median of “E-score (-0.5 to 0.5)” is about -0.013, and the highest 2% start at about 0.3. This is one part of the list.

Target: T1, Msn1 (UniProt P22148)
T1 sequence: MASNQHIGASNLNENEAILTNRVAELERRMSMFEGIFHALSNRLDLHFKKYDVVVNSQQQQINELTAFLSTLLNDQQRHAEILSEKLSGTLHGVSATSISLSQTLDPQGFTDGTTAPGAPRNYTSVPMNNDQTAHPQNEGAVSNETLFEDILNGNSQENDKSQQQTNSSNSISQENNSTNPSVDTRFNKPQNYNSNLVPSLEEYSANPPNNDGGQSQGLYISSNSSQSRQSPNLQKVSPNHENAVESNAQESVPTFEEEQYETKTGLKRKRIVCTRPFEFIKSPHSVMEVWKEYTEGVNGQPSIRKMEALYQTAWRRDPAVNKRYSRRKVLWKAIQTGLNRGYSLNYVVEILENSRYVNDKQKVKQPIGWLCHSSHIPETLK
Experiment: PBM E-score (8-mer binding enrichment) (E-score (-0.5 to 0.5)); higher = stronger / more preferred TF binding; most listed sequences are background and not binding sites
Conditions: protein concentration: 200 nM; construct: GST-full length
How it was run: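 Masliner-normalised scans of fluorescent anti-GST signal were the basis for scoring. That signal came from GST-tagged yeast transcription factors applied at about 100-200 nM to double-stranded universal all-10-mer Agilent arrays on fresh or once-stripped slides. Each ungapped eight-base word, pooled with its reverse complement, received an E-score from the Universal PBM Analysis Suite.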

Sequence | PBM E-score
ACCAACAA | 0.101
CCTCAAGA | -0.136
AGGTAACT | 0.07
GAAATATC | 0.151
AGTATGTC | 0.353
GCCCAAAC | -0.0708
ACCTACTC | -0.0557
AGCCGGCC | -0.1
AAGCTTGA | -0.108
AAGTCAGA | 0.0287
CACGGTCA | 0.098
CTTAACCC | -0.183
ACTTGCAG | 0.0752
CGCCAGTC | -0.214
ATAAGCTA | 0.0481
ACGACGAA | 0.114
ACTCTACT | 0.0905
CCCCCAGA | -0.3
AGAGAAGA | 0.012
TTGAAAAA | 0.0748
AAAGTCTT | 0.187
CGTAATTC | 0.0697
AACTTATG | -0.139
ATTGCGTC | 0.123
CACCCAAC | -0.201

Sequence | PBM E-score
GATTCTGA | -0.0324
ATCTTTAC | -0.0234
CAATACTG | 0.0181
CTTGCAGC | -0.0125
AACGTAAG | -0.0801
GCGTACAC | 0.0788
ATCGGATG | -0.0434
CACCTACA | -0.11
ATTAGATC | 0.0117
GCAAGCTA | -0.0766
AACTGACT | 0.0085
ACCACAAG | 0.00018
CGGTCCGC | 0.00168
ATTGCGTG | -0.134
ACGATCCG | -0.0628
GGTCGAGA | -0.242
ATGTCGAG | 0.162
ACTACAAA | 0.162
TTAGCTAA | -0.0991
AAGTAATA | -0.0811
GCACACAC | -0.103
GTCCACAA | 0.294
CCGCCTAC | -4e-05
ACCTAATG | -0.261
CCAAGAAC | -0.0852

Sequence | PBM E-score
AGTTCAAT | -0.148
TAATCGTA | 0.0255
CCCAAAAA | 0.0733
AGAGGATC | -0.145
TCCTGAGA | 0.0942
CCTGTCCA | 0.156
CCAGTGAG | -0.235
AATCGTCC | 0.0791
ACAAGGCT | 0.106
CTAACATC | 0.00886
TACTCCGA | 0.0959
TACGTCGA | -0.0753
CCACCGCG | -0.0225
CTGGGATC | -0.158
GCCCGGAA | 0.0421
CAGAATAG | -0.0322
ACGTCCTG | 0.0274
AAACGGAC | 0.0649
GAGCCTGC | -0.0925
CTTAAGAA | 0.153
CTCATTCA | -0.0495
CATTATAC | 0.174
CCAGCCTC | -0.327
ATGAGCCC | -0.227
GCGTTGGA | -0.188

Sequence | PBM E-score
TAAAGCCA | 0.0185
AAGGCGCC | -0.00662
CCAAGTCC | -0.0745
TCATGTCA | 0.252
GAGGCATC | -0.229
AGACAGGA | 0.175
CCGGGGGA | -0.303
ATGCAATG | -0.079
ATCGCTGC | -0.119
AGTTTCGG | 0.0782
GAAACGCC | 0.0413
TGCAGCAA | 0.0669
ACCCTACT | -0.027
AAGGGGCA | -0.207
GGGGTTTA | -0.0517
CAGTTGCC | -0.0967
AAATGGGT | 0.174
ATTATGGA | 0.122
GCACAACC | -0.101
CTGATCTC | -0.0966
CAAATCTC | 0.0618
CAAGCTGA | 0.193
CTTCCTTA | -0.112
GATGTTGA | -0.0623
CCCTGTGC | -0.323

Sequence | PBM E-score
AGCGCTCG | -0.122
ACTCTGGG | -0.0921
TCTGACCA | 0.0211
CCTCGCAC | -0.121
ACAACGAT | 0.0393
CCCTCGGA | 0.158
CAGGCCGA | 0.0449
CGACCCAG | -0.155
CTTCTCAC | -0.198
AGCCGGCG | -0.0742
TCCGTAAA | 0.167
GTAGAGCA | -0.186
ACACGACA | 0.225
AAACGCTC | 0.0143
CGTAGCAC | -0.0105
TCGATGCA | -0.18
GAGAGATC | -0.115
AATTGGGT | 0.164
AAATCGAC | 0.164
ATCGCCCA | -0.179
CTGACGTC | 0.0524
TGATACCA | -0.0663
AGACAAGC | 0.307
CTTCGGAC | 0.285
ACAACCAC | 0.069

Sequence | PBM E-score
CCACCGGA | 0.171
GCGGCGAC | 0.0426
ATCATTGC | 0.0238
ACATGGCT | 0.00755
ATGGATTA | -0.132
AGTTGGTG | -0.125
CCTCATAA | -0.00811
AACAGGGT | -0.179
CCCCTGCC | -0.263
CACGAGTA | 0.0368
AACTACTG | -0.106
GGGGACAA | 0.456
GAATACGA | 0.0634
TCACATGA | -0.0579
ATGGATAG | -0.121
ATAGACAA | 0.41
AGTTGCGC | 0.00674
GGGGGTAA | -0.223
ACAGGGTA | -0.0164
GGGGGGGA | -0.349
AAGTAACG | 0.184
AAGTTAGT | 0.151
GATGAGGA | -0.149
AGGCGTTC | -0.25
GTATGAAA | 0.111

Sequence | PBM E-score
TATAGACA | 0.405
ATTCGAGC | -0.087
GGATTGAA | 0.108
CGCTGCCA | -0.206
ACGTTTAT | 0.0184
AGCAGACG | 0.0267
GTCTTTGA | 0.0824
CCACGATC | 0.0204
CCTGCGGA | 0.00937
CAACATCA | 0.137
TAGGTACA | 0.291
CTCAAGTA | 0.0201
ACCCCCCC | -0.367
ACCCCGGC | -0.197
CAGATACA | 0.258
GATAACGC | 0.098
AGGCCAGC | -0.215
CGATAACG | 0.0964
ACCAAAAT | -0.0821
CATGCATC | 0.0333
ACACTCCG | 0.0416
CAGAGTGA | -0.0608
